Results as given in PMC6042961.
No constants are given. Whether binding was seen depends on the method and setting. Binding seen in cells or lysates may run through a third protein. Some binding calls cover weakened binding; strength is not graded here. For part of these data: Where a sequence is shown, tags or fusion partners need not be part of it.

B1: human iRhom1-3xHA (protein, UniProt Q96CC6 1-855)
chain: MSEARRDSTSSLQRKKPPWLKLDIPSAVPLTAEEPSFLQPLRRQAFLRSVSMPAETAHISSPHHELRRPVLQRQTSITQTIRRGTADWFGVSKDSDSTQKWQRKSIRHCSQRYGKLKPQVLRELDLPSQDNVSLTSTETPPPLYVGPCQLGMQKIIDPLARGRAFRVADDTAEGLSAPHTPVTPGAASLCSFSSSRSGFHRLPRRRKRESVAKMSFRAAAALMKGRSVRDGTFRRAQRRSFTPASFLEEDTTDFPDELDTSFFAREGILHEELSTYPDEVFESPSEAALKDWEKAPEQADLTGGALDRSELERSHLMLPLERGWRKQKEGAAAPQPKVRLRQEVVSTAGPRRGQRIAVPVRKLFAREKRPYGLGMVGRLTNRTYRKRIDSFVKRQIEDMDDHRPFFTYWLTFVHSLVTILAVCIYGIAPVGFSQHETVDSVLRNRGVYENVKYVQQENFWIGPSSEALIHLGAKFSPCMRQDPQVHSFIRSAREREKHSACCVRNDRSGCVQTSEEECSSTLAVWVKWPIHPSAPELAGHKRQFGSVCHQDPRVCDEPSSEDPHEWPEDITKWPICTKNSAGNHTNHPHMDCVITGRPCCIGTKGRCEITSREYCDFMRGYFHEEATLCSQVHCMDDVCGLLPFLNPEVPDQFYRLWLSLFLHAGILHCLVSICFQMTVLRDLEKLAGWHRIAIIYLLSGVTGNLASAIFLPYRAEVGPAGSQFGILACLFVELFQSWQILARPWRAFFKLLAVVLFLFTFGLLPWIDNFAHISGFISGLFLSFAFLPYISFGKFDLYRKRCQIIIFQVVFLGLLAGLVVLFYVYPVRCEWCEFLTCIPFTDKFCEKYELDAQLH
B2: human iRhom2-3xHA (protein, UniProt Q6PJF5-1 1-856)
chain: MASADKNGGSVSSVSSSRLQSRKPPNLSITIPPPEKETQAPGEQDSMLPEGFQNRRLKKSQPRTWAAHTTACPPSFLPKRKNPAYLKSVSLQEPRSRWQESSEKRPGFRRQASLSQSIRKGAAQWFGVSGDWEGQRQQWQRRSLHHCSMRYGRLKASCQRDLELPSQEAPSFQGTESPKPCKMPKIVDPLARGRAFRHPEEMDRPHAPHPPLTPGVLSLTSFTSVRSGYSHLPRRKRMSVAHMSLQAAAALLKGRSVLDATGQRCRVVKRSFAFPSFLEEDVVDGADTFDSSFFSKEEMSSMPDDVFESPPLSASYFRGIPHSASPVSPDGVQIPLKEYGRAPVPGPRRGKRIASKVKHFAFDRKKRHYGLGVVGNWLNRSYRRSISSTVQRQLESFDSHRPYFTYWLTFVHVIITLLVICTYGIAPVGFAQHVTTQLVLRNKGVYESVKYIQQENFWVGPSSIDLIHLGAKFSPCIRKDGQIEQLVLRERDLERDSGCCVQNDHSGCIQTQRKDCSETLATFVKWQDDTGPPMDKSDLGQKRTSGAVCHQDPRTCEEPASSGAHIWPDDITKWPICTEQARSNHTGFLHMDCEIKGRPCCIGTKGSCEITTREYCEFMHGYFHEEATLCSQVHCLDKVCGLLPFLNPEVPDQFYRLWLSLFLHAGVVHCLVSVVFQMTILRDLEKLAGWHRIAIIFILSGITGNLASAIFLPYRAEVGPAGSQFGLLACLFVELFQSWPLLERPWKAFLNLSAIVLFLFICGLLPWIDNIAHIFGFLSGLLLAFAFLPYITFGTSDKYRKRALILVSLLAFAGLFAALVLWLYIYPINWPWIEHLTCFPFTSRFCEKYELDQVLH
B3: endogenous FRMD8 (protein, UniProt Q9BZ67 1-464)
chain: MDGTEGSAGQPGPAERSHRSSVSSVGARAADVLVYLADDTVVPLAVENLPSLSAHELHRAVREVLQLPDIALDVFALWLVSPLLEVQLKPKHQPYKLGRQWPELLLRFTSAPDDDVAMDEPFLQFRRNVFFPKRRELQIHDEEVLRLLYEEAKGNVLAARYPCDVEDCEALGALVCRVQLGPYQPGRPAACDLREKLDSFLPAHLCKRGQSLFAALRGRGARAGPGEQGLLNAYRQVQEVSSDGGCEAALGTHYRAYLLKCHELPFYGCAFFHGEVDKPAQGFLHRGGRKPVSVAISLEGVHVIDSREKHVLLGLRFQELSWDHTSPEEEEPILWLEFDGDSEGTPVNKLLKIYSKQAELMSSLIEYCIELSQAAEPAGPQDSATGSPSDPSSSLAPVQRPKLRRQGSVVSSRIQHLSTIDYVEDGKGIRRVKPKRTTSFFSRQLSLGQGSYTVVQPGDSLEQG

What was measured:
[1] = molecular target: T1, human FRMD8-V5 (human) (UniProt Q9BZ67); assay: co-IP; lysates in 1% Triton X-100, 150 mM NaCl, 50 mM Tris-HCl pH 7.5; anti-HA or anti-V5 magnetic beads 1 hr at 4°C; wash with 300 mM NaCl; western blot; HEK293T cells (wild type, ADAM17 KO, FRMD8 KO, or iRhom1/2 DKO reconstituted with iRhom2^WT-3xHA; with or without 200 nM PMA for 30 min)
T1 sequence: B3 chain

[2] = molecular target: T2, human iRhom2-3xHA (human) (UniProt Q6PJF5); assay: as above
T2 sequence: B2 chain

Binder | binding [1] | binding [2]
B1 | binds | –
B2 | binds | –
B3 | – | binds
